In article PMC2267168, “Competition between Delta and the Abruptex domain of Notch” (BMC Developmental Biology, 2008):
No constants are given. Whether binding was seen depends on the method and setting. Some entries that bind do so weakly or less than the wild type. Tags and fused reporters may be left off the sequences shown.

T1: EGF repeats 15-20 of Notch (Drosophila) (UniProt P07207)
T1 sequence: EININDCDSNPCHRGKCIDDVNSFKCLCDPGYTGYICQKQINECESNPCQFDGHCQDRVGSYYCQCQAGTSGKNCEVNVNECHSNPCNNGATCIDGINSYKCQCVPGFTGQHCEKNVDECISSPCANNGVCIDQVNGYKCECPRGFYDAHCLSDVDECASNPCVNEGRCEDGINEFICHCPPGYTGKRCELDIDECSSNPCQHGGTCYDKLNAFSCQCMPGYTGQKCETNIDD

T2: N11-20:V5:His (Drosophila, UniProt P07207 447-832)
T2 chain: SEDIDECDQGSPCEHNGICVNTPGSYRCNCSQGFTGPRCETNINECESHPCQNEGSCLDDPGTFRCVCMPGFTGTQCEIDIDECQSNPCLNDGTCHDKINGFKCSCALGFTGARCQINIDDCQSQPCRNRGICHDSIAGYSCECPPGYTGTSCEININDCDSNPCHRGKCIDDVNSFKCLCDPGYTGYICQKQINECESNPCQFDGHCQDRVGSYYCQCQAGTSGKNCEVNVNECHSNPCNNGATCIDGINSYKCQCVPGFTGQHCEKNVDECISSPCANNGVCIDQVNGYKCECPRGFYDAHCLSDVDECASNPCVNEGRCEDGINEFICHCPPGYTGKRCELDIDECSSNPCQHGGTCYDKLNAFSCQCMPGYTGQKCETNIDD

T3: N11-14:V5:His (Drosophila, UniProt P07207 447-605)
T3 chain: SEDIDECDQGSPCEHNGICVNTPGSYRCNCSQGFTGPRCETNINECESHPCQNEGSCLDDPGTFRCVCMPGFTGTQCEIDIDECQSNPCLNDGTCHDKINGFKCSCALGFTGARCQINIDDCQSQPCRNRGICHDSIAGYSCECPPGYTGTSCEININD

B1: N21-30:Fc (Fc fusion)
chain: ETNIDDCVTNPCGNGGTCIDKVNGYKCVCKVPFTGRDCESKMDPCASNRCKNEAKCTPSSNFLDFSCTCKLGYTGRYCDEDIDECSLSSPCRNGASCLNVPGSYRCLCTKGYEGRDCAINTDDCASFPCQNGGTCLDGIGDYSCLCVDGFDGKHCETDINECLSQPCQNGATCSQYVNSYTCTCPLGFSGINCQTNDEDCTESSCLNGGSCIDGINGYNCSCLAGYSGANCQYKLNKCDSNPCLNGATCHEQNNEYTCHCPSGFTGKQCSEYVDWCGQSPCENGATCSQMKHQFSCKCSAGWTGKLCDVQTISCQDAADRKGLSLRQLCNNGTCKDYGNSHVCYCSQGYAGSYCQKEIDECQSQPCQNGGTCRDLIGAYECQCRQGFQGQNCELNIDD
B2: N21-25:Fc (Fc fusion)
chain: ETNIDDCVTNPCGNGGTCIDKVNGYKCVCKVPFTGRDCESKMDPCASNRCKNEAKCTPSSNFLDFSCTCKLGYTGRYCDEDIDECSLSSPCRNGASCLNVPGSYRCLCTKGYEGRDCAINTDDCASFPCQNGGTCLDGIGDYSCLCVDGFDGKHCETDINECLSQPCQNGATCSQYVNSYTCTCPLGFSGINCQTNDED
B3: N1-10:Fc (Fc fusion, UniProt P07207 57-452)
chain: LVAASCTSVGCQNGGTCVTQLNGKTYCACDSHYVGDYCEHRNPCNSMRCQNGGTCQVTFRNGRPGISCKCPLGFDESLCEIAVPNACDHVTCLNGGTCQLKTLEEYTCACANGYTGERCETKNLCASSPCRNGATCTALAGSSSFTCSCPPGFTGDTCSYDIEECQSNPCKYGGTCVNTHGSYQCMCPTGYTGKDCDTKYKPCSPSPCQNGGICRSNGLSYECKCPKGFEGKNCEQNYDDCLGHLCQNGGTCIDGISDYTCRCPPNFTGRFCQDDVDECAQRDHPVCQNGATCTNTHGSYSCICVNGWAGLDCSNNTDDCKQAACFYGATCIDGVGSFYCQCTKGKTGLLCHLDDACTSNPCHADAICDTSPINGSYACSCATGYKGVDCSEDIDE
B4: N11-20:Fc (Fc fusion, UniProt P07207 447-832)
chain: T2 chain

What was measured:
[1] = target: T1, EGF repeats 15-20 of Notch (Drosophila); test: ELISA; data not shown: EGF repeats 15-20 tested for the binding site of N21-30:Fc; both purified
N11-20:V5:His = target: T2, N11-20:V5:His; test: ELISA; 200 ng His-tagged protein adsorbed to a 96-well plate at 4°C overnight, blocked with 3% BSA; purified Fc fusion added in TBS (10 mM Tris-Cl pH 8.0, 150 mM NaCl, 1 mM CaCl2) for 2 h; detected with HRP anti-human IgG; half-maximal binding ('Kd') fitted with Prizm, said not to be a true Kd; both purified
N11-14:V5:His = target: T3, N11-14:V5:His; test: as above

| Binder | binding [1] | binding (N11-20:V5:His) | binding (N11-14:V5:His) |
| --- | --- | --- | --- |
| B1 | binds weakly | – | – |
| B2 | – | binds weakly | binds weakly |
| B3 | – | no binding | – |
| B4 | – | no binding | – |
